# Assay results: the supplement of paper PMC4967469
# Legend:
# Assay in all cases: Viability of human cancer cell lines after 72 h of drug (GDSC screen)
# [1] = compound: CC1(C)CC(=O)c2c(C(F)(F)F)nn(-c3ccc(C(N)=O)c(N[C@H]4CC[C@H](O)CC4)c3)c2C1 [SNX-2112]; settings: top dose 2.56 µM
# Procedure: (§1)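 Human cancer cell lines in 384-well plates, medium with 10% serum, drug for 72 h over a 256-fold dose range (nine 2-fold or five 4-fold steps up to the top dose). Adherent lines were fixed and stained with the nucleic acid dye Syto60, suspension lines read with resazurin; signal relative to control wells, capped at 0 and 100%. One two-parameter sigmoid per drug and line, fitted in a mixed model over all curves with the slope shared within a line.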
# [2] = compound: CC[C@]1(O)C[C@@H]2CN(CCc3c([nH]c4ccccc34)[C@@](C(=O)OC)(c3cc4c(cc3OC)N(C)[C@H]3[C@@](O)(C(=O)OC)[C@H](OC(C)=O)[C@]5(CC)C=CCN6CC[C@]43[C@@H]65)C2)C1 [Vinblastine]; settings: top dose 0.1 µM; top dose inferred
# Procedure: as §1
# [3] = compound: CN(C)C/C=C/C(=O)Nc1cc2c(Nc3ccc(F)c(Cl)c3)ncnc2cc1O[C@H]1CCOC1 [Afatinib]
# Procedure: as §1
# [4] = compound: CN(c1ncccc1CNc1nc(Nc2ccc3c(c2)CC(=O)N3)ncc1C(F)(F)F)S(C)(=O)=O [PF-562271]; settings: top dose 2.56 µM; top dose inferred
# Procedure: as §1
# [5] = compound: O=C(NC1CC1)c1cccc(-c2ccc3c(NC(=O)C4CC4)n[nH]c3c2)c1 [XMD13-2]; settings: top dose 10.24 µM; top dose inferred
# Procedure: as §1
# [6] = top dose 0.5 µM, screen: GDSC drug entry 1032
# [7] = top dose 10 µM, screen: GDSC drug entry 1377, top dose inferred
Cell Line,AUC [1],IC50 [1],AUC [2],IC50 [2],"AUC [3, 6]","IC50 [3, 6]","AUC [3, 7]","IC50 [3, 7]",AUC [4],IC50 [4],AUC [5],IC50 [5]
"LCLC-103H (large cell lung carcinoma, adherent)",0.806,1160 nM,0.354,2.58 nM,0.988,> 500 nM,0.99,> 10000 nM,0.838,1510 nM,0.889,9.77 µM
"LK-2 (lung squamous cell carcinoma, adherent)",0.849,1750 nM,0.472,5.27 nM,0.976,> 500 nM,0.975,> 10000 nM,0.937,> 2560 nM,0.811,5.04 µM
"LN-18 (glioma, adherent)",0.523,182 nM,0.796,36.9 nM,0.993,> 500 nM,0.989,> 10000 nM,0.897,2100 nM,0.976,> 10.2 µM
"LN-405 (glioma, adherent)",0.813,1850 nM,0.774,49.7 nM,0.984,> 500 nM,0.97,> 10000 nM,0.984,> 2560 nM,0.966,> 10.2 µM
"LNZTA3WT4 (glioma, adherent)",0.772,971 nM,0.685,20.3 nM,0.989,> 500 nM,0.987,> 10000 nM,0.894,> 2560 nM,0.958,> 10.2 µM
"LOU-NH91 (lung squamous cell carcinoma, adherent)",0.973,> 2560 nM,0.528,7.5 nM,0.77,208 nM,–,–,0.971,> 2560 nM,0.986,> 10.2 µM
"LOUCY (T-cell lymphoblastic leukaemia, suspension)",0.18,22.5 nM,0.546,8.15 nM,0.992,> 500 nM,0.969,> 10000 nM,0.773,820 nM,0.866,6.5 µM
"LP-1 (myeloma, suspension)",0.84,1350 nM,0.935,> 100 nM,0.993,> 500 nM,0.988,> 10000 nM,0.987,> 2560 nM,0.908,9.96 µM
"LS-123 (large intestine, adherent)",0.814,2020 nM,0.899,> 100 nM,0.862,> 500 nM,0.898,> 10000 nM,0.899,> 2560 nM,0.971,> 10.2 µM
"LS-180 (large intestine, adherent)",0.714,710 nM,0.789,51.3 nM,0.91,> 500 nM,0.894,> 10000 nM,0.904,> 2560 nM,0.978,> 10.2 µM
"LS-513 (large intestine, adherent)",0.347,59.1 nM,0.78,42.9 nM,0.896,> 500 nM,0.975,> 10000 nM,0.964,> 2560 nM,0.899,> 10.2 µM

# IC50 is the fitted dose that halves viability relative to control wells, and lower means more sensitive; a limit (>, <) means that the fit lies beyond the doses tested. The AUC spans the tested range (256-fold, ending at the top dose) of the same fit; values near 1 show little effect. For some of these results: An inferred top dose was derived from the fitted curves, not read from the paper. For some of these results: Drugs with an entry number were screened twice under separate entries, and the two screens often disagree.
